In the supplement of paper PMC4967469:
IC50 is the fitted dose that halves viability relative to control wells, and lower means more sensitive; where the fit passes the top or lowest dose, that dose stands as a limit. For AUC the same curve is integrated over the 256-fold range of doses and scaled to a fraction; values near 1 show little effect. The top dose, if marked as inferred, is not printed in the source and was worked back from the curve model. For some assays here: An entry number marks a drug with two screens in the source, which often give different values.

Columns and labels:
Experiment in all cases: Viability of human cancer cell lines after 72 h of drug (GDSC screen)
AZD6482 = compound: Cc1cc([C@@H](C)Nc2ccccc2C(=O)O)c2nc(N3CCOCC3)cc(=O)n2c1 [AZD6482]
Protocol: (§1)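 Human cancer cell lines in 384-well plates, medium with 10% serum, drug for 72 h over a 256-fold dose range (nine 2-fold or five 4-fold steps up to the top dose). Adherent lines were fixed and stained with the nucleic acid dye Syto60, suspension lines read with resazurin; signal relative to control wells, capped at 0 and 100%. One two-parameter sigmoid per drug and line, fitted in a mixed model over all curves with the slope shared within a line.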

BMN-673 = compound: Cn1ncnc1[C@H]1c2n[nH]c(=O)c3cc(F)cc(c23)N[C@@H]1c1ccc(F)cc1 [BMN-673]; details: top dose 10 µM; top dose inferred
Protocol: as §1

XMD11-85h = compound: COc1cc(C(=O)NC2CCN(C)CC2)ccc1Nc1ncc2c(n1)N(C1CCCC1)CCC(=O)N2C(C)C [XMD11-85h]; details: top dose 10 µM; top dose inferred
Protocol: as §1

[1] = top dose 5 µM, screen: GDSC drug entry 1066, top dose inferred
[2] = top dose 5.12 µM, screen: GDSC drug entry 156

Cell Line | AUC (AZD6482; [1]) | IC50 (AZD6482; [1]) [µM] | AUC (AZD6482; [2]) | IC50 (AZD6482; [2]) [µM] | AUC (BMN-673) | IC50 (BMN-673) [µM] | AUC (XMD11-85h) | IC50 (XMD11-85h) [µM]
MLMA (hairy cell leukaemia, semi-adherent) | 0.836 | 3.37 | 0.816 | 2.88 | 0.903 | > 10 | 0.927 | > 10
MN-60 (B-cell leukaemia, suspension) | 0.988 | > 5 | 0.875 | > 5.12 | 0.909 | > 10 | 0.924 | > 10
MSTO-211H (mesothelioma, adherent) | 0.991 | > 5 | 0.991 | > 5.12 | 0.111 | 0.0411 | 0.937 | > 10
MZ2-MEL (melanoma, adherent) | 0.967 | > 5 | 0.89 | > 5.12 | 0.838 | 8.48 | 0.94 | > 10
NB7 (neuroblastoma, adherent) | 0.897 | > 5 | 0.849 | 4.12 | 0.913 | > 10 | 0.927 | > 10
NB14 (neuroblastoma, adherent) | 0.892 | > 5 | 0.892 | > 5.12 | 0.938 | > 10 | 0.985 | > 10
NCC010 (kidney, adherent) | 0.957 | > 5 | – | – | 0.74 | 3.21 | 0.983 | > 10
NCI-H28 (mesothelioma, adherent) | 0.835 | 4.86 | 0.893 | > 5.12 | 0.792 | 6.19 | 0.941 | > 10
NCI-H226 (lung squamous cell carcinoma, adherent) | 0.953 | > 5 | 0.954 | > 5.12 | 0.896 | > 10 | 0.941 | > 10
NCI-H292 (lung adenocarcinoma, adherent) | 0.653 | 0.912 | 0.785 | 2.7 | 0.38 | 0.272 | 0.779 | 5
NCI-H630 (large intestine, adherent) | 0.973 | > 5 | 0.931 | > 5.12 | 0.97 | > 10 | 0.932 | > 10
NCI-H650 (lung adenocarcinoma, adherent) | 0.96 | > 5 | 0.934 | > 5.12 | 0.772 | 4.26 | 0.979 | > 10
NCI-H1437 (lung adenocarcinoma, adherent) | 0.94 | > 5 | 0.921 | > 5.12 | 0.943 | > 10 | 0.953 | > 10
NCI-H1563 (lung adenocarcinoma, adherent) | 0.93 | > 5 | 0.902 | > 5.12 | 0.922 | > 10 | 0.956 | > 10
NCI-H1694 (small cell lung carcinoma, suspension) | 0.978 | > 5 | 0.984 | > 5.12 | 0.558 | 0.902 | 0.955 | > 10
NCI-H1755 (lung adenocarcinoma, adherent) | 0.774 | 2.29 | 0.729 | 1.61 | 0.83 | 7.71 | 0.953 | > 10

Cell Line | AUC (AZD6482; [1]) | IC50 (AZD6482; [1]) [µM] | AUC (AZD6482; [2]) | IC50 (AZD6482; [2]) [µM] | AUC (BMN-673) | IC50 (BMN-673) [µM] | AUC (XMD11-85h) | IC50 (XMD11-85h) [µM]
NCI-H1781 (lung adenocarcinoma, adherent) | 0.952 | > 5 | 0.983 | > 5.12 | 0.244 | 0.114 | 0.988 | > 10
NCI-H1876 (small cell lung carcinoma, adherent) | 0.897 | > 5 | 0.987 | > 5.12 | 0.18 | 0.0669 | 0.956 | > 10
NCI-H2087 (lung adenocarcinoma, semi-adherent) | 0.941 | > 5 | 0.85 | 4.36 | 0.754 | 3.6 | 0.976 | > 10
NCI-H2122 (lung adenocarcinoma, adherent) | 0.989 | > 5 | 0.973 | > 5.12 | 0.798 | 4.43 | 0.987 | > 10
NCI-N87 (stomach, adherent) | 0.898 | > 5 | – | – | 0.857 | > 10 | 0.94 | > 10
NOS-1 (osteosarcoma, adherent) | 0.683 | 1.15 | 0.907 | > 5.12 | 0.901 | > 10 | 0.862 | > 10
NUGC-4 (stomach, adherent) | 0.977 | > 5 | 0.988 | > 5.12 | 0.79 | 4.45 | 0.923 | > 10
NY (osteosarcoma, adherent) | 0.95 | > 5 | 0.909 | > 5.12 | 0.882 | > 10 | 0.976 | > 10
OACp4C (oesophagus, adherent) | 0.965 | > 5 | – | – | 0.765 | 4.36 | 0.951 | > 10
OC-314 (ovary, adherent) | 0.931 | > 5 | – | – | 0.428 | 0.41 | 0.941 | > 10
OCI-AML3 (acute myeloid leukaemia, suspension) | 0.957 | > 5 | 0.96 | > 5.12 | 0.835 | 5.29 | 0.863 | 6.73
OE21 (oesophagus, adherent) | 0.978 | > 5 | 0.93 | > 5.12 | 0.879 | > 10 | 0.841 | > 10
OV-7 (ovary, adherent) | 0.765 | 2.82 | – | – | 0.803 | 8.44 | 0.96 | > 10
OV-56 (ovary, adherent) | 0.914 | > 5 | – | – | 0.899 | > 10 | 0.98 | > 10
OV-90 (ovary, adherent) | 0.916 | > 5 | 0.931 | > 5.12 | 0.91 | > 10 | 0.939 | > 10
OVCA433 (ovary, adherent) | 0.884 | > 5 | – | – | 0.602 | 1.23 | 0.955 | > 10
